The values that follow come from publication PMC8732845, “Novel interaction between neurotrophic factor-α1/carboxypeptidase E and serotonin receptor, 5-HTR1E, protects human neurons against oxidative/neuroexcitotoxic stress via β-arrestin/ERK signaling” (Cellular and Molecular Life Sciences: CMLS, 2021).

This assay deals with T1, [125I] NF-α1/CPE (radiolabelled recombinant neurotrophic factor-α1/carboxypeptidase E) (mouse, UniProt Q00493 28-476, 125I label (residues not stated)).
T1 construct: neurotrophic factor-α1/carboxypeptidase E, mouse, recombinant, 53 kDa; also called hot CPE; source: recombinant, custom-synthesized and highly purified by GenScript
Put plainly: radioligand binding; saturation binding: ~200,000 5-HTR1E stable HEK293 cells with 1.25–30 nM [125I] NF-α1/CPE, with or without 500 nM cold NF-α1/CPE, 1 ml serum-free DMEM, 3 h on ice; specific binding fitted by non-linear regression (GraphPad PRISM 8.0). The following applies: one partner purified.

B1: 5-hydroxytryptamine receptor 1-E (5-HTR1E) on stably transfected HEK293 cells (receptor, human, UniProt P28566 1-365, looked up)
chain: MNITNCTTEASMAIRPKTITEKMLICMTLVVITTLTTLLNLAVIMAIGTTKKLHQPANYLICSLAVTDLLVAVLVMPLSIIYIVMDRWKLGYFLCEVWLSVDMTCCTCSILHLCVIALDRYWAITNAIEYARKRTAKRAALMILTVWTISIFISMPPLFWRSHRRLSPPPSQCTIQHDHVIYTIYSTLGAFYIPLTLILILYYRIYHAAKSLYQKRGSSRHLSNRSTDSQNSFASCKLTQTFCVSDFSTSDPTTEFEKFHASIRIPPFDNDLDHPGERQQISSTRERKAARILGLILGAFILSWLPFFIKELIVGLSIYTVSSEVADFLTWLGYVNSLINPLLYTSFNEDFKLAFKKLIRCREHT
notes: 5-hydroxytryptamine receptor 1E, human, stably expressed on HEK293 cells; also called serotonin receptor 5-HTR1E; source: HEK293 cells stably expressing 5-HTR1E (Dr. Bryan Roth's laboratory), on cells
For the molecule B1, the Kd stood at 13.8 nM.
